# According to the supplement of paper PMC8728848:
# The other results are listed elsewhere or left out.
# B1: SJA (Sophora japonica) (protein)
# chain: FLGLFNSGGYSSSYQIVAVEFDTYINEWDPKTRHIGIDINSINSTKTVTWGWENGEVAIVLISYKAATETLTVSLTYPSSQTSYILSAAVDLKSILPEWVRIGF
# Tests used:
# Experiment in all cases: glycan array binding signal (z-score within array); higher = stronger binding
# Conditions in all cases: glycan notation: IUPAC condensed, linker removed
# Fuc(a1-2)Gal = target: Fuc(a1-2)Gal
# How it was run: (§1)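 Negative Z-scores can be read as non-binding. The Z-score is calculated within each array and then averaged across arrays of one protein sequence at different concentrations or buffers and across linkers. Arrays, 3228 in all, were curated from the Consortium for Functional Glycomics database and kept only where the protein sequence was available.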
# Fuc(a1-2)Gal(b1-3)GalNAc = target: Fuc(a1-2)Gal(b1-3)GalNAc
# How it was run: as §1
# [1] = target: Fuc(a1-2)Gal(b1-3)GalNAc(a1-3)[Fuc(a1-2)]Gal(b1-4)Glc
# How it was run: as §1
# [2] = target: Fuc(a1-2)Gal(b1-3)GalNAc(a1-3)[Fuc(a1-2)]Gal(b1-4)GlcNAc
# How it was run: as §1
# [3] = target: Fuc(a1-2)Gal(b1-3)GalNAc(b1-3)Gal
# How it was run: as §1
# [4] = target: Fuc(a1-2)Gal(b1-3)GalNAc(b1-3)Gal(a1-4)Gal(b1-4)Glc
# How it was run: as §1
# [5] = target: Fuc(a1-2)Gal(b1-3)GalNAc(b1-4)[Neu5Ac(a2-3)]Gal(b1-4)Glc
# How it was run: as §1
# Fuc(a1-2)Gal(b1-3)GlcNAc = target: Fuc(a1-2)Gal(b1-3)GlcNAc
# How it was run: as §1
# [6] = target: Fuc(a1-2)Gal(b1-3)GlcNAc(b1-2)Man(a1-3)[Fuc(a1-2)Gal(b1-3)GlcNAc(b1-2)Man(a1-6)]Man(b1-4)GlcNAc(b1-4)GlcNAc
# How it was run: as §1
# [7] = target: Fuc(a1-2)Gal(b1-3)GlcNAc(b1-2)Man(a1-3)[Fuc(a1-2)Gal(b1-3)GlcNAc(b1-2)Man(a1-6)]Man(b1-4)GlcNAc(b1-4)[Fuc(a1-6)]GlcNAc
# How it was run: as §1
# [8] = target: Fuc(a1-2)Gal(b1-3)GlcNAc(b1-3)Gal(b1-4)Glc
# How it was run: as §1
# [9] = target: Fuc(a1-2)Gal(b1-3)GlcNAc(b1-3)GalNAc
# How it was run: as §1
# [10] = target: Fuc(a1-2)Gal(b1-3)GlcNAc(b1-3)[Fuc(a1-2)Gal(b1-3)GlcNAc(b1-6)]GalNAc
# How it was run: as §1
# [11] = target: Fuc(a1-2)Gal(b1-3)GlcNAc(b1-3)[Gal(b1-4)GlcNAc(b1-6)]Gal(b1-4)Glc
# How it was run: as §1
# [12] = target: Fuc(a1-2)Gal(b1-3)GlcNAc(b1-3)[Neu5Ac(a2-6)Gal(b1-4)GlcNAc(b1-6)]Gal(b1-4)Glc
# How it was run: as §1
# [13] = target: Fuc(a1-2)Gal(b1-3)GlcNAc6S
# How it was run: as §1
# [14] = target: Fuc(a1-2)Gal(b1-3)[Fuc(a1-4)]GlcNAc
# How it was run: as §1
# [15] = target: Fuc(a1-2)Gal(b1-3)[Fuc(a1-4)]GlcNAc(b1-2)Man(a1-3)[Fuc(a1-2)Gal(b1-3)[Fuc(a1-4)]GlcNAc(b1-2)Man(a1-3)]Man(b1-4)GlcNAc(b1-4)GlcNAc
# How it was run: as §1
# [16] = target: Fuc(a1-2)Gal(b1-3)[Fuc(a1-4)]GlcNAc(b1-2)Man(a1-3)[Fuc(a1-2)Gal(b1-3)[Fuc(a1-4)]GlcNAc(b1-2)Man(a1-6)]Man(b1-4)GlcNAc(b1-4)[Fuc(a1-6)]GlcNAc(b1-4)[Fuc(a1-6)]GlcNAc
# How it was run: as §1
# [17] = target: Fuc(a1-2)Gal(b1-3)[Fuc(a1-4)]GlcNAc(b1-3)[Fuc(a1-3)[Gal(b1-4)]GlcNAc(b1-6)]Gal(b1-4)Glc
# How it was run: as §1
# [18] = target: Fuc(a1-2)Gal(b1-3)[Fuc(a1-4)]GlcNAc(b1-3)[Gal(b1-4)GlcNAc(b1-6)]Gal(b1-4)Glc
# How it was run: as §1
# [19] = target: Fuc(a1-2)Gal(b1-4)Fuc(a1-3)]GlcNAc(b1-2)Man(a1-3)[Fuc(a1-2)Gal(b1-4)[Fuc(a1-3)]GlcNAc(b1-2)Man(a1-6)]Man(b1-4)GlcNAc(b1-4)GlcNAc
# How it was run: as §1
# Fuc(a1-2)Gal(b1-4)Glc = target: Fuc(a1-2)Gal(b1-4)Glc
# How it was run: as §1
# Fuc(a1-2)Gal(b1-4)Glc6S = target: Fuc(a1-2)Gal(b1-4)Glc6S
# How it was run: as §1
# Fuc(a1-2)Gal(b1-4)GlcNAc = target: Fuc(a1-2)Gal(b1-4)GlcNAc
# How it was run: as §1
# [20] = target: Fuc(a1-2)Gal(b1-4)GlcNAc(b1-2)Man
# How it was run: as §1
# [21] = target: Fuc(a1-2)Gal(b1-4)GlcNAc(b1-2)Man(a1-3)[Fuc(a1-2)Gal(b1-4)GlcNAc(b1-2)Man(a1-6)]Man(b1-4)GlcNAc(b1-4)GlcNAc
# How it was run: as §1
# [22] = target: Fuc(a1-2)Gal(b1-4)GlcNAc(b1-2)Man(a1-3)[Fuc(a1-2)Gal(b1-4)GlcNAc(b1-2)Man(a1-6)]Man(b1-4)GlcNAc(b1-4)[Fuc(a1-6)]GlcNAc
# How it was run: as §1
# [23] = target: Fuc(a1-2)Gal(b1-4)GlcNAc(b1-2)[Fuc(a1-2)Gal(b1-4)GlcNAc(b1-4)]Man(a1-3)[Fuc(a1-2)Gal(b1-4)GlcNAc(b1-2)Man(a1-6)]Man(b1-4)GlcNAc(b1-4)GlcNAc
# How it was run: as §1
# [24] = target: Fuc(a1-2)Gal(b1-4)GlcNAc(b1-3)Gal(b1-4)GlcNAc
# How it was run: as §1
binder,measurement,setting,value
B1,glycan array binding signal (z-score),Fuc(a1-2)Gal,-0.017
same,glycan array binding signal (z-score),Fuc(a1-2)Gal(b1-3)GalNAc,-0.203
same,glycan array binding signal (z-score),[1],-0.36
same,glycan array binding signal (z-score),[2],-0.224
same,glycan array binding signal (z-score),[3],-0.081
same,glycan array binding signal (z-score),[4],-0.14
same,glycan array binding signal (z-score),[5],-0.092
same,glycan array binding signal (z-score),Fuc(a1-2)Gal(b1-3)GlcNAc,-0.218
same,glycan array binding signal (z-score),[6],0.322
same,glycan array binding signal (z-score),[7],-0.346
same,glycan array binding signal (z-score),[8],-0.125
same,glycan array binding signal (z-score),[9],-0.172
same,glycan array binding signal (z-score),[10],-0.184
same,glycan array binding signal (z-score),[11],-0.254
same,glycan array binding signal (z-score),[12],-0.155
same,glycan array binding signal (z-score),[13],-0.278
same,glycan array binding signal (z-score),[14],-0.008
same,glycan array binding signal (z-score),[15],0.093
same,glycan array binding signal (z-score),[16],-0.175
same,glycan array binding signal (z-score),[17],-0.31
same,glycan array binding signal (z-score),[18],-0.052
same,glycan array binding signal (z-score),[19],0.588
same,glycan array binding signal (z-score),Fuc(a1-2)Gal(b1-4)Glc,-0.141
same,glycan array binding signal (z-score),Fuc(a1-2)Gal(b1-4)Glc6S,-0.144
same,glycan array binding signal (z-score),Fuc(a1-2)Gal(b1-4)GlcNAc,0.088
same,glycan array binding signal (z-score),[20],-0.099
same,glycan array binding signal (z-score),[21],0.01
same,glycan array binding signal (z-score),[22],-0.133
same,glycan array binding signal (z-score),[23],-0.012
same,glycan array binding signal (z-score),[24],-0.163
